Results taken from the supplement of paper PMC4604168 (melanoma cell lines).
Some of the results follow. Single values are uncertain, as repeats are few or missing.

Test system: SkMel28
Assay: cell count relative to DMSO control; melanoma cells; higher = more viable cells
Details: library dose: low library concentration; 72 h
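Note: cell number obtained by counting DAPI-stained nuclei in high-throughput microscope images with image analysis software, screen run in 1,536-well plates.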

Row | Compound | cell count [%]
1 | C[C@]12O[C@H](C[C@]1(O)CO)n1c3ccccc3c3c4c(c5c6ccccc6n2c5c31)CNC4=O [Lestaurtinib] + CCN(CC)CCNC(=O)c1c(C)[nH]c(/C=C2\C(=O)Nc3ccc(F)cc32)c1C [sunitinib] (first compound 0.004 µM, partner dose 0.4 µM) | 92.4
2 | C[C@]12O[C@H](C[C@]1(O)CO)n1c3ccccc3c3c4c(c5c6ccccc6n2c5c31)CNC4=O [Lestaurtinib] + CS(=O)(=O)c1ccc(C(=O)Nc2ccc(Cl)c(-c3ccccn3)c2)c(Cl)c1 [vismodegib] (first compound 0.004 µM, partner dose 1 µM) | 90.6
3 | C[As](C)SC[C@H](NC(=O)CC[C@H](N)C(=O)O)C(=O)NCC(=O)O [Darinaparsin] + Cn1cc(/C=C2\C(=O)Nc3cccnc32)c2ccccc21 [GW441756] (first compound 0.4 µM, partner dose 0.4 µM) | 95.9
4 | C[C@]12O[C@H](C[C@]1(O)CO)n1c3ccccc3c3c4c(c5c6ccccc6n2c5c31)CNC4=O [Lestaurtinib] + CC(=O)c1c(C)c2cnc(Nc3ccc(N4CCNCC4)cn3)nc2n(C2CCCC2)c1=O [palbociclib] (first compound 0.004 µM, partner dose 0.04 µM) | 74.4
5 | C[C@]12O[C@H](C[C@]1(O)CO)n1c3ccccc3c3c4c(c5c6ccccc6n2c5c31)CNC4=O [Lestaurtinib] + Nc1nc(F)nc2c1ncn2[C@@H]1O[C@H](CO)[C@@H](O)[C@@H]1O [fludarabine] (first compound 0.004 µM, partner dose 0.2 µM) | 65.5
